Some of the results follow.

First the molecules themselves.
B1: PhoQ; a variant is named by its letters at X, in order, P23837 (parent)
chain: MKKLLRLFFPLSLRVRFLLATAAVVLVLSLAYGMVALIGYSVSFDKTTFRLLRGESNLFYTLAKWENNKLHVELPENIDKQSPTMTLIYDENGQLLWAQRDVPWLMKMIQPDWLKSNGFHEIEADVNDTSLLLSGDHSIQQQLQEVREDDDDAEMTHSVAVNVYPATSRMPKLTIVVVDTIPVELKSSYMVWSWFIYVLSANLLLVIPLLWVAAWWSLRPIEALAKEVRELEEHNRELLNPATTRELTSLVRNLNRLLKSERERYDKYRTTLTDLTHSLKTPLXXLQXXLRSLRSEKMSVSDAEPVMLEQISRISQQIGYYLHRASMRGGTLLSRELHPVAPLLDNLTSALNKVYQRKGVNISLDISPEISFVGEQNDFVEVMGNVLDNACKYCLEFVEISARQTDEHLYIVVEDDGPGIPLSKREVIFDRGQRVDTLRPGQGVGLAVAREITEQYEGKIVAGESMLGGARMEVIFGRQHSAPKDE

In the assay the parent is B1. The assay is described as follows: enrichment ratio after two sorts for PhoP signalling (ratio (wild type AVST 3.29)); higher = more functional. To be noted: with PhoP (E. coli).
For ASRW, the enrichment ratio is at most 0.25.

In the case of KTLA, the enrichment ratio is at most 0.25.

For the variant LTIQ, the enrichment ratio was at most 0.25.

For the variant IQAY, the enrichment ratio is at most 0.25.

Consider STQM, for which the enrichment ratio came to 12.8.

LSCS: the enrichment ratio was at most 0.25.

In the case of KRIW, the enrichment ratio is at most 0.25.

Consider DFTY, for which the enrichment ratio is at most 0.25.

For the variant ITTI, the enrichment ratio is at most 0.25.

For WSAH, the enrichment ratio was at most 0.25.

Turning to VRLA, the enrichment ratio is at most 0.25.

On to PMTE, for which the enrichment ratio is at most 0.25.

As to TMGD, the enrichment ratio was 3.55.

With KNYM, the enrichment ratio was at most 0.25.

For ATYN, the enrichment ratio was found to be 2.69.

Turning to SYDV, the enrichment ratio is at most 0.25.

As for RDGM, the enrichment ratio was at most 0.25.

As to DRKY, the enrichment ratio was at most 0.25.

On to QNPE, for which the enrichment ratio is at most 0.25.

As to RMQM, the enrichment ratio was at most 0.25.

For the variant HHLD, the enrichment ratio was at most 0.25.

FQVW: the enrichment ratio is at most 0.25.

Take VTYG: the enrichment ratio was at most 0.25.

For the variant AMEP, the enrichment ratio was at most 0.25.

As for SYIT, the enrichment ratio is at most 0.25.

Turning to FVVF, the enrichment ratio was at most 0.25.

On to LVYH, for which the enrichment ratio was at most 0.25.

Turning to DVPK, the enrichment ratio is at most 0.25.

As to MAEG, the enrichment ratio was at most 0.25.

Take NSPG: the enrichment ratio was at most 0.25.

SPND: the enrichment ratio was at most 0.25.

Turning to HMCE, the enrichment ratio was at most 0.25.

For the variant SCMV, the enrichment ratio came to 9.09.

MSVG: the enrichment ratio is at most 0.25.

For the variant YMVR, the enrichment ratio was at most 0.25.

Turning to KKQG, the enrichment ratio is at most 0.25.

Consider KNGP, for which the enrichment ratio was at most 0.25.

Regarding SSLH, the enrichment ratio came to 11.4.

Turning to PEII, the enrichment ratio is at most 0.25.

Consider WGMV, for which the enrichment ratio is at most 0.25.

Turning to YYST, the enrichment ratio was at most 0.25.

Turning to YPGF, the enrichment ratio is at most 0.25.

As for FSAL, the enrichment ratio was 0.667.

For HAGY, the enrichment ratio was at most 0.25.

As for EVEL, the enrichment ratio was at most 0.25.

Turning to FFHH, the enrichment ratio was 0.731.

For the variant IAMD, the enrichment ratio is at most 0.25.

Turning to NPTI, the enrichment ratio is at most 0.25.

On to TSQD, for which the enrichment ratio was at most 0.25.

For the variant LYFP, the enrichment ratio was 0.276.

As for DWAR, the enrichment ratio is at most 0.25.

On to PFRA, for which the enrichment ratio was at most 0.25.

YCFP: the enrichment ratio is at most 0.25.

IPHW: the enrichment ratio was at most 0.25.

Regarding LQMR, the enrichment ratio was at most 0.25.

With WNDC, the enrichment ratio is at most 0.25.

Turning to WIPE, the enrichment ratio was at most 0.25.

As to MSWE, the enrichment ratio was at most 0.25.

On to VTIQ, for which the enrichment ratio was at most 0.25.

With HHYR, the enrichment ratio is at most 0.25.

Turning to SLRF, the enrichment ratio was at most 0.25.

Take SMVS: the enrichment ratio stood at 4.14.

With GNHS, the enrichment ratio was at most 0.25.

Take FWPY: the enrichment ratio is at most 0.25.

On to YESG, for which the enrichment ratio is 0.306.

For IIQV, the enrichment ratio was at most 0.25.

On to MDHD, for which the enrichment ratio was at most 0.25.

Consider QWLN, for which the enrichment ratio was at most 0.25.

For the variant DWAD, the enrichment ratio is at most 0.25.

Regarding EGTK, the enrichment ratio is at most 0.25.

As to LMII, the enrichment ratio is at most 0.25.

With FLLW, the enrichment ratio was at most 0.25.

On to RLIY, for which the enrichment ratio is at most 0.25.

Regarding AAVV, the enrichment ratio is at most 0.25.

Regarding WFCR, the enrichment ratio is at most 0.25.

On to ARRK, for which the enrichment ratio is at most 0.25.

With PGKP, the enrichment ratio is at most 0.25.

On to PFVY, for which the enrichment ratio is at most 0.25.

As to VNQA, the enrichment ratio is at most 0.25.

Take PNED: the enrichment ratio is at most 0.25.

For the variant LSPT, the enrichment ratio was at most 0.25.

TKPL: the enrichment ratio is at most 0.25.

Turning to RFTH, the enrichment ratio is at most 0.25.

Consider GWES, for which the enrichment ratio is at most 0.25.

With PTWD, the enrichment ratio is at most 0.25.

As to ILNL, the enrichment ratio was at most 0.25.

With PVYD, the enrichment ratio is at most 0.25.

Take PYST: the enrichment ratio was at most 0.25.

As to VIRS, the enrichment ratio is at most 0.25.

Turning to FSMA, the enrichment ratio was found to be 0.794.

As for SNAF, the enrichment ratio is 8.34.

Consider SNFN, for which the enrichment ratio is at most 0.25.

Turning to DLYE, the enrichment ratio was at most 0.25.

Regarding FVHH, the enrichment ratio was at most 0.25.

Consider SMPL, for which the enrichment ratio was at most 0.25.

WEYR: the enrichment ratio was at most 0.25.

In the case of QMWD, the enrichment ratio was at most 0.25.

Regarding TLSC, the enrichment ratio came out at 8.65.

Consider LKGM, for which the enrichment ratio is at most 0.25.

Consider TAAM, for which the enrichment ratio was 13.6.

Turning to GWGQ, the enrichment ratio is at most 0.25.

For GYPN, the enrichment ratio is at most 0.25.

Regarding GFHY, the enrichment ratio is at most 0.25.

In the case of GWDD, the enrichment ratio is at most 0.25.

For RCLM, the enrichment ratio is at most 0.25.

As for MHSC, the enrichment ratio was at most 0.25.

PYAQ: the enrichment ratio was at most 0.25.

With ECWI, the enrichment ratio is at most 0.25.

For KQHS, the enrichment ratio is at most 0.25.

With QNQS, the enrichment ratio was at most 0.25.

For the variant EHYH, the enrichment ratio is at most 0.25.

On to YASL, for which the enrichment ratio is at most 0.25.

With TFWV, the enrichment ratio was at most 0.25.

As to EWMS, the enrichment ratio was at most 0.25.

On to DFQW, for which the enrichment ratio is at most 0.25.

On to FLFE, for which the enrichment ratio was at most 0.25.

ICPP: the enrichment ratio is at most 0.25.

As for IRLD, the enrichment ratio was at most 0.25.

Turning to RPKL, the enrichment ratio is at most 0.25.

With YWGF, the enrichment ratio was at most 0.25.

Consider ATYK, for which the enrichment ratio was at most 0.25.

For the variant VRGV, the enrichment ratio was at most 0.25.

Regarding HRRG, the enrichment ratio was at most 0.25.

PVQS: the enrichment ratio was at most 0.25.

In the case of NDNG, the enrichment ratio is at most 0.25.

With LGWV, the enrichment ratio was at most 0.25.

With VTGR, the enrichment ratio was at most 0.25.

Consider TTEY, for which the enrichment ratio was at most 0.25.

Consider NRVY, for which the enrichment ratio is at most 0.25.

For PWSF, the enrichment ratio is at most 0.25.

In the case of YWRA, the enrichment ratio is at most 0.25.

For IWTM, the enrichment ratio is at most 0.25.

Take VVMG: the enrichment ratio was at most 0.25.

As to LQFA, the enrichment ratio was at most 0.25.

For STCR, the enrichment ratio stood at 4.44.

Consider IMLE, for which the enrichment ratio is at most 0.25.

Regarding GVLP, the enrichment ratio was at most 0.25.

As to WTYE, the enrichment ratio was at most 0.25.

As for CVLI, the enrichment ratio is at most 0.25.

In the case of VDLG, the enrichment ratio is at most 0.25.

As to RRLW, the enrichment ratio was at most 0.25.

Consider FTMA, for which the enrichment ratio was at most 0.25.

For the variant VGTA, the enrichment ratio is at most 0.25.

As for HCFH, the enrichment ratio was at most 0.25.

Consider GHFS, for which the enrichment ratio was at most 0.25.

Regarding MNCV, the enrichment ratio was 5.24.

MIFK: the enrichment ratio amounted to 1.24.

As for VYFM, the enrichment ratio was at most 0.25.

Take AFNY: the enrichment ratio is at most 0.25.

As for YDNA, the enrichment ratio is at most 0.25.

Regarding PSQK, the enrichment ratio was at most 0.25.

As to LYYN, the enrichment ratio was at most 0.25.

Consider MPSC, for which the enrichment ratio was at most 0.25.

These data come from a collection of fitness landscapes (doi:10.1126/science.1257360).
